Hit rate of the full screen: of about 110,000 compounds, about 230 (0.21%) showed an effect of 50% or more. This is one part of the list.
target: DPAP1 (Plasmodium falciparum, UniProt Q8IIJ9); assay: primary screen, percent inhibition; read by cleavage of a fluorogenic dipeptide substrate; higher = more effect of the substance; parameters: species or system P. falciparum D10 trophozoite lysates; single well
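Also: 30 min substrate incubation versus DMSO and 10 µM JCP410 controls.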

Sequence of DPAP1 (Q8IIJ9 whole entry, looked up): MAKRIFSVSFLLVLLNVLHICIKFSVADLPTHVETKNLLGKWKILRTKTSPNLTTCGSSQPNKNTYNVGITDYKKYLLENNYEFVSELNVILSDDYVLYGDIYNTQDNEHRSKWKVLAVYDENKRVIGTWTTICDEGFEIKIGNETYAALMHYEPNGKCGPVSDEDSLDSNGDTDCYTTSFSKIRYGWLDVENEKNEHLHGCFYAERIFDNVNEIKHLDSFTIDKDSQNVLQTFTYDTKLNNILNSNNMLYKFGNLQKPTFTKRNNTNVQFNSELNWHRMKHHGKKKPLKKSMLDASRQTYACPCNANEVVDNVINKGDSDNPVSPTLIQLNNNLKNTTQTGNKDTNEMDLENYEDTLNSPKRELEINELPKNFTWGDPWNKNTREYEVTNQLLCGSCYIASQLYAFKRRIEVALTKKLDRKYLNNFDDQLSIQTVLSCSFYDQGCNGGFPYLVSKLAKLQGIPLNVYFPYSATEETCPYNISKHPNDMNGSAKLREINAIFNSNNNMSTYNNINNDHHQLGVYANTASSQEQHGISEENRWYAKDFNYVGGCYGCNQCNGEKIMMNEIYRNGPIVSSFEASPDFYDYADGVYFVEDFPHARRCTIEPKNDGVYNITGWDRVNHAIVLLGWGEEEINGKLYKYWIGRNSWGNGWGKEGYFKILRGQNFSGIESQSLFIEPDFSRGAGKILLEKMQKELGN

Structure (SMILES) | % Inhibition @ 10 uM [%]
CCC(=O)N1CCN(c2ccccc2F)CC1 | -3.45
O=C1CCCC2=C1C(c1ccc(C(F)(F)F)cc1)C1=C(O)c3ccccc3C1=N2 (stereo not shown) | 6.96
COc1cccc(S(=O)(=O)Nc2ccc(C(=O)N3CCN(C(=O)c4ccco4)CC3)cc2)c1 | 2.17
COc1cc(OC)c(OC)cc1CN1CCN(Cc2ccccc2Cl)CC1 | 12.7
COc1cc(OC)c(OC)cc1/C=N/n1c(C)nnc1C | -0.339
CC(NC(=O)c1cc2c(s1)CSC2)c1ccccc1 (stereo not shown) | -3.1
COc1cc(OC)cc(-n2nnc(-c3nc(-c4ccc(C)cc4)no3)c2N)c1 | 1.4
Cc1ccc(S(=O)(=O)Nc2nc(C)cc(C)n2)cc1 | -4.61
CC1=C(C(=O)Nc2ccc(Cl)cc2)C(c2ccc(O)cc2)NC(S)=N1 (stereo not shown) | -5.28
COC(=O)C1=C(C)N(Cc2ccc(C)cc2)C(=O)/C1=C\c1ccc(OC)cc1OC | 0.484
O=C(CCCOc1ccc(Cl)cc1)NC1CCCCC1 | -7.3
Cc1ccc(OCC(=O)Nc2ccc(C(C)C)cc2)c(Br)c1 | 5.09
Cc1ccc(CCNC(=O)C23C[C@H]4C[C@@H](C2)CC(n2nnc(C)n2)(C4)C3)cc1 | 0.738
COc1ccc2[nH]c3c(O)ncnc3c2c1 | -5.48
O=C(Nc1ccccc1F)c1onc2c1CCCC2 | -0.884
O=C(CCCOc1ccccc1)Nc1ccccc1Cl | -3.24
COc1cc(/C=C2/SC(=O)N(CC(=O)Nc3cccc(C)c3)C2=O)ccc1O | -7.02
Cc1cccc(N2C(=O)NC(=O)/C(=C/NC34CN5CN(CN(C5)C3)C4)C2=O)c1 | -2.54
Cc1sc2ncn(CC(=O)NCCCC(=O)N(C)CCc3ccccn3)c(=O)c2c1C | 3.54
COc1ccccc1CCSc1nc(O)c2ccccc2n1 | -0.865
Cc1ccccc1OCCCCCc1c(C)n[nH]c1C | -3.15
CCOc1ccc(Nc2nc(N)nc(CN3CCCCCC3)n2)cc1 | -2.76
CCOC(=O)N1CCN(Cc2c(F)cccc2Cl)CC1 | 3.24
O=C1CC(c2ccc(O)cc2)C2=C(CC(c3ccccc3Cl)CC2=O)N1 (stereo not shown) | -6.14
CN(CC(=O)NC1CCN(Cc2ccccc2)CC1)S(=O)(=O)c1cccc2nsnc12 | 0.317
CCOCCC/N=C/c1c(O)[nH]c2ccccc12 | -0.169
C=CCNC(=O)CN(c1cccc(Cl)c1C)S(=O)(=O)c1ccccc1 | 5.99
Cc1cc(C(F)(F)F)nn1CC(=O)Nc1sc2c(c1C#N)CCCCC2 | 2.76

From paper PMC6919601, “Identification of Plasmodium dipeptidyl aminopeptidase allosteric inhibitors by high throughput screening” (PLoS ONE, 2019)
